± gives the standard deviation. Only a part is listed here, and it is no random draw.
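Note: 1 nM active piRISC with 0.1 nM target library at 33 °C single turnover.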

One assay has as its system MIWI (PIWIL1) piRISC loaded with L1MC piRNA (30 nt). Nature of the assay: pre-steady-state target cleavage rate (min^-1); MIWI and MILI are mouse PIWI proteins and EfPiwi is from a freshwater sponge; tags in brackets are library labels; higher = faster piRNA-guided slicing of the target. As to conditions: guide: L1MC piRNA 5'p-UAACUAAAUACUAUGCAAGCUGUAGGUCCU; auxiliary factor: 500 nM mouse GTSF1. The method, boiled down: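 For Cleave-'n-Seq, a transcribed, DNA-blocked target RNA library […] met 1 nM active affinity-purified piRISC with one synthetic guide at 33 °C for 0–8 or 0–960 min in HEPES–potassium acetate buffer, with or without 500 nM GTSF1 partner protein. Uncleaved targets were sequenced and normalised to depth and weakly complementary targets, with three trials pooled and k3 capped at 0.0001 min^-1. A burst-and-steady-state fit supplied the pre-steady-state cleavage rate.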
For UCCUCCAUGAGCUUGCAUAGUAUUUUCAAA, the “pre-steady-state target cleavage rate” value amounted to 0.112 ± 0.025.
Turning to UCCACCUACAGGAUGCAUAGUAUUUACAAA, the “pre-steady-state target cleavage rate” value stood at 0.316 ± 0.049.
Turning to UCCACCUACAGCUUGCAUUGUAUUUUCAAA, the “pre-steady-state target cleavage rate” value stood at 0.102 ± 0.018.
On the same count and under the same terms, under UCCACCUACAGCUUGCAUAGUAAAAAGUAA stands 0.233 ± 0.044; under UCCUGGAUCAGCUUCCAUAGUAAUUAGUUA, 0.00529 ± 0.0046; under AGGACCUACAGCUUGCAUAGUAUAUACAAA, 0.408 ± 0.073.
For UCCUGCUACAGCUUGCAUAGAUUUUACAAA, the “pre-steady-state target cleavage rate” value turned out to be 0.00782 ± 0.0045.
In the case of UCCUGCUACACCUUGCAUAGUAUUUUCAAA, the “pre-steady-state target cleavage rate” value stood at 0.205 ± 0.051.
In the case of UCCUGCUACAGCUUGCAUAGUAUUAACAAA, the “pre-steady-state target cleavage rate” value was determined as 0.218 ± 0.035.
With UCCUGGUACAGCUUGCAUAGUAUUAUGAAA, the “pre-steady-state target cleavage rate” value is 0.119 ± 0.037.
AGGUGCUACAGCUUGCAUAGUAUUUACAAA: the “pre-steady-state target cleavage rate” value was 0.149 ± 0.032.
With UCCACCUACAGCUUGCAUAGUAAAAAGAAA, the “pre-steady-state target cleavage rate” value came out at 0.102 ± 0.028.
In the case of UCCUGCUACACGAUGCAUAGUAUUUUCAAA, the “pre-steady-state target cleavage rate” value stood at 0.107 ± 0.026.
With AGGACCUACAGCUUGGUAAGUAUUUAGUAA, the “pre-steady-state target cleavage rate” value turned out to be 0.162 ± 0.054.
In the case of UCCUGCUACAGGAAGCAUAGUAUUUAGAAA, the “pre-steady-state target cleavage rate” value worked out at 0.0565 ± 0.021.
Take UCCUGGAUGUCCUUCAUAGUAUUUAGUUA: the “pre-steady-state target cleavage rate” value came to 0.0109 ± 0.0036.
In the case of UCCUGGUACAGCUUGCAUAGUAUUUAUUA, the “pre-steady-state target cleavage rate” value is 0.0685 ± 0.026.
Same read-out and setting: under UCCUGGAUCAGCUUGCAUAGUAUUUGUUA stands 0.137 ± 0.025; under UCCUGGAUGUCGAUGCAUAGUAUUUUGUUA, 0.00674 ± 0.0031.
For UCCUGCUACAGCUUGCAUAGUAAUUACAAA, the “pre-steady-state target cleavage rate” value was 0.193 ± 0.046.
Still for that read-out and setting: under UCCUCCUACAGCUUGCUUAGUAUUUUCAAA stands 0.163 ± 0.031; under UGGACCUACAGCAACCAUAGUAUUUAGUUA, 0.225 ± 0.026; under UCCUGCUACAGCUUGCAUCAGUAUUUAGUUA, 0.0153 ± 0.0073.
Take UCCACCUACAGCUUGCAUAGAUAUUUAGUUA: the “pre-steady-state target cleavage rate” value amounted to 0.0183 ± 0.0085.
On to UCCUGGAUGUCGAUGCAUAGUAUUAAGUUA, for which the “pre-steady-state target cleavage rate” value is 0.0045 ± 0.004.
For UGGACCUACAGCAAGCAUAGUAUUUUCAAA, the “pre-steady-state target cleavage rate” value was determined as 0.226 ± 0.051.
Same read-out and setting: under UCCUGGUACAGCUUGCAUAGUAUAAUGUAA stands 0.152 ± 0.042; under UCCUGGAUGUCGAACGUUUGUAUUUAGUAA, under 0.0001.
On to UGGACCUACAGCUUGCAUAGUUAUUACAAA, for which the “pre-steady-state target cleavage rate” value worked out at 0.0207 ± 0.0062.
As to UCCUGGAACAGCUUCCAAAGUAUUUAGUUA, the “pre-steady-state target cleavage rate” value was found to be 0.412 ± 0.034.
Same read-out and setting: under UCCUGGAUGUCGAACGUAAGUAAUUUAGUUA stands under 0.0001.
On the same count and under the same terms, then UCCUGGAUGAGCUUCCAUAGUAUUUUGUUA, with 0.00578 ± 0.005; and UCCUGGAUGUGCAUGCAUAGUUUUUAGUUA, with 0.00476 ± 0.0042.
Still for that read-out and setting: then UCCUCCUACAGCUUCGUUAGUAUUUAGUAA, with 0.0325 ± 0.011.
Regarding UCCACCUACUCCUUGCAUAGUAUUUUCAAA, the “pre-steady-state target cleavage rate” value came to 0.143 ± 0.021.
UCGACCUACAGCUUCCAUAGUUUUUAGUUA: the “pre-steady-state target cleavage rate” value turned out to be 0.0298 ± 0.011.

The same assay, now with this note: guide: L1MC piRNA 5'p-UAACUAAAUACUAUGCAAGCUGUAGGUCCU; auxiliary factor: none (no GTSF1).
As for UCCUGGAUGUCGAACGUAUGUAUUUAUUA, the “pre-steady-state target cleavage rate” value was under 0.0001.
The same measure, in the same setting: under UCCUGGAUGUCGAACGAUAGUAUUUCGUUA stands under 0.0001.
As for UCCUGGAUGUCGAACCAAAGUAUAUAGUUA, the “pre-steady-state target cleavage rate” value was under 0.0001.
